“And” between values parts separate entries of the source, which are not always exact repeats. Equal entries are not always repeated. Among all 410,000 compounds or so, about 5,000 (1.2%) were called active. Inconclusive means that the source gave no clear call. Such entries were picked first, then a sample of the others. Calls follow the shape of the dose curve; as a rule, active = well fitted inhibition curve with a large enough effect; inconclusive = small, poorly fitted or top-dose-only effect; inactive = no such curve, though single readings can be large or run the other way. Where the call is inconclusive, the potency comes from a doubtful curve fit.
Experiment: qHTS for Inhibitors of TGF-b; also: nearly all actives have a fitted effect of over 65% in size
Conditions: HepG2 CAGA-GFP TGF-b/SMAD3 reporter, GFP fluorescence, 18 h, TGF-beta stimulated, 500 pg/mL final; series mostly up to 46.1 µM; activity, negative = inhibition: at the top concentration
Procedure, shortened: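 GFP signal (ex488/em500-530) from TGF-beta-stimulated HEPG2 CAGA-GFP cells, 500 pg/mL final, 18 h at 37 degrees C in DMEM plus 1% FBS, normalized to unstimulated and DMSO-stimulated controls.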
% is scaled to controls: 0 for no effect and ±100 for the full control effect; potency is read from the fitted curve at half-maximal effect; tags tell the direction and shape of the fitted curve.

| Structure (SMILES) | Potency | activity, negative = inhibition |
| --- | --- | --- |
| Cc1ccc(NC(=O)CN2C(=O)CNC2=O)cc1 | inconclusive: 35.5 µM [inhibitor, single point] |  |
| Cc1ccc(N2CCN(C(=O)c3nn(C)c4c3CS(=O)(=O)c3ccccc3-4)CC2)c(C)c1 | inconclusive: 2.51 µM [inhibitor, partial curve, poor fit] |  |
| Clc1ccc(-c2nc3ccccn3c2CN2CCCCC2)cc1 |  | inactive: -6.03% |
| COC(=O)C(Cc1ccccc1)NC(=O)CCNC(=O)c1ccc(Br)cc1 (stereo not given) | inconclusive: 35.5 µM [inhibitor, partial curve, poor fit] |  |
| COc1ccc(CCNC(=O)CCSc2nc(-c3ccco3)cc(C(F)(F)F)n2)cc1OC |  | inactive: -8.3% |
| CN1CCN(c2ccc(NC(=O)c3ccc([N+](=O)[O-])o3)cc2Cl)CC1 | active: 10 µM |  |
| Cc1ccc(C2=NS(=O)(=O)N(C)C(C(=O)Nc3ccc4c(c3)OCO4)=C2)cc1 | inconclusive: 7.08 µM [inhibitor, partial curve] |  |
| CCOC(=O)CSc1ncc(-c2ccc([N+](=O)[O-])cc2)[nH]1 | inconclusive: 12.6 µM [inhibitor, single point] |  |
| CCOC(=O)c1nnc(-c2ccc(C)cc2)nc1Sc1ccccc1Cl | inconclusive: 10 µM [inhibitor, single point] |  |
| O=C(CCCn1c2ccccc2c(=O)c2ccccc21)Nc1cccc(Cl)c1 | active: 12.6 µM |  |
| CC(C)CC(=O)NC(c1cccs1)c1ccc2cccnc2c1O (stereo not given) | inconclusive: 3.55 µM [inhibitor, full curve, poor fit] |  |
| COc1cccc(CNC(=O)c2cc3c(-c4ccccc4F)nn(C)c3s2)c1 |  | inactive: -16.9% |
| C=CCNc1nc2c(c(=O)n(C)c(=O)n2C)n1Cc1ccc(F)cc1 |  | inactive: -42.9% |
| Cc1ccc(NC(=O)Cn2nc(-c3ccccc3)nc(Cc3ccc(Cl)cc3)c2=O)cc1 |  | inactive: 1.42% |
| N/C(Cc1cccc2ccccc12)=N\O |  | inactive: -2.14% |
| Cc1ccc(C(=O)Nc2ccc3c(c2)OCO3)o1 |  | inactive: -7.64% |
| COc1ccccc1Cc1c(C2CCCCC2)nc2ccc(Cl)cn12 | inconclusive: 25.1 µM [inhibitor, single point] |  |
| COc1ccc(OC)c(S(=O)(=O)N2C(C)CCCC2C)c1 (stereo not given) |  | inactive: 4.82% |
| CCOc1cc(/C=N/N=C(/N)c2nonc2N)cc(Br)c1OCc1ccc(Cl)cc1 | inconclusive: 6.31 µM [inhibitor, single point] |  |
| Clc1cccc(N2CCN(Cc3nc(-c4ccccc4)no3)CC2)c1 | inconclusive: 35.5 µM [inhibitor, single point] |  |
| CCC(CC)C(=O)N1CC(=O)Nc2ccc(F)cc2C1c1ccc(F)cc1 (stereo not given) | inconclusive: 10 µM [inhibitor, partial curve, poor fit] |  |
| CCOC(=O)c1ccc(-c2c(-c3ccc(OC)cc3)oc(=O)c3cc(OC)c(OC)cc23)cc1F |  | inactive: -2.38% |
| Cc1c(C(=O)NCc2cccc([N+](=O)[O-])c2)sc(=O)n1Cc1ccccc1F |  | inactive: -8.68% |
| COc1cccc(-c2nnc(SCc3ccc(C#N)cc3)n2Cc2ccco2)c1 |  | inactive: 4.96% |

| Structure (SMILES) | Potency | activity, negative = inhibition |
| --- | --- | --- |
| COc1cc(/C=C2\C(=O)N(CCC#N)N=C2C)ccc1OCC(=O)Nc1ccccc1 | inconclusive: 35.5 µM [inhibitor, single point] |  |
| CCN(CC)C(=O)c1ccc2c(=O)n(CCOC)c(=S)[nH]c2c1 |  | inactive: 3.77% |
| O=C1c2ccccc2C(=O)N1CCc1csc(-c2ccccc2)n1 |  | inactive: -3.35% |
| CCC[N+](C)(C)c1ccc(/C=C/c2ccnc3ccccc23)cc1 | active: 2 µM |  |
| COc1cc(NC(=O)Cn2nc(C(F)(F)F)c3c2CCC3)cc(OC)c1OC |  | inactive: -15.7% |
| CCOc1ccccc1OCCC(=O)OCC(=O)Nc1c(C)cc(C)cc1C |  | inactive: -2.52% |
| Cc1ccnc(NCc2cccc3ccccc23)c1 | inconclusive: 0.891 µM [inhibitor, full curve] |  |
| CC1CN(C(=O)/C=C/c2ccc([N+](=O)[O-])s2)CC(C)O1 (stereo not given) | inconclusive: 20 µM [inhibitor, partial curve, poor fit] |  |
| Cc1c(C(=O)N/N=C/c2ccc(O)c(Br)c2)sc(N)c1C#N | inconclusive: 35.5 µM [inhibitor, single point] |  |
| COc1cc(C(CC(=O)Nc2ccc(C)c(F)c2)N2Cc3ccccc3C2=O)cc(OC)c1OC (stereo not given) |  | inactive: -2.24% |
| CCOc1ccccc1NC(=O)C1CCN(S(=O)(=O)c2c(C)noc2/C=C/c2ccco2)CC1 | inconclusive: 1.41 µM [inhibitor, full curve, poor fit] |  |
| Cc1ccc(C#N)c(SCc2nnc(-c3ccc(Cl)cc3)o2)n1 |  | inactive: -0.184% |
| CCN(CC)CCCNC(=O)N[C@@H](Cc1ccccc1)C(=O)O | inconclusive: 4.47 µM [inhibitor, partial curve, poor fit] |  |
| CCOC(=O)c1c(C)[nH]c(C)c1S(=O)(=O)N(C)CC(=O)Nc1ccc(OC)cc1 |  | inactive: -17.8% |
| CC1CCCC(C)N1C(=O)c1ccccc1Nc1ccc(SC(F)F)cc1 (stereo not given) | inconclusive: 35.5 µM [inhibitor, single point] |  |
| O=C(CN(C(=O)c1csnn1)c1cccc(C(F)(F)F)c1)NC1CCCC1 | inconclusive: 35.5 µM [inhibitor, partial curve, poor fit] |  |
| CCN(Cc1nc2cc(Cl)ccc2c(=O)[nH]1)C(=O)c1cc(C2CC2)nn1-c1ccccc1 | inconclusive: 25.1 µM [inhibitor, single point] |  |
| CC(O)(CS(=O)(=O)Cc1ccccc1)C(=O)Nc1cccc(C(F)(F)F)c1 (stereo not given) |  | inactive: 11.4% |
| COC(=O)c1c(NC(=O)c2ccc(OC)cc2OC)sc2c1CCCCC2 |  | inactive: -14% |
| C[C@H](CO)N1C[C@H](C)[C@@H](CN(C)Cc2ccc(-c3ccccc3)cc2)Oc2c(NS(=O)(=O)c3ccccc3)cccc2C1=O | inconclusive: 35.5 µM [inhibitor, single point] |  |
| COc1cccc(Nc2nc(C(N)c3ccccc3)cs2)n1 (stereo not given) | inconclusive: 25.1 µM [inhibitor, single point] |  |
| CCC(C)NCCCOc1cc(Cl)ccc1Cl (stereo not given) |  | inactive: 24.5% |
| Cc1ccc(C)c(-c2nn(-c3cc(N4CCN(CCO)CC4)ccc3[N+](=O)[O-])c(=O)c3ccccc23)c1 | inconclusive: 17.8 µM [inhibitor, single point] |  |
| CCn1c(=O)c2cc(C(=O)NCc3cc(OC)ccc3OC)sc2c2ccccc21 | active: 2.51 µM |  |

| Structure (SMILES) | Potency | activity, negative = inhibition |
| --- | --- | --- |
| Cc1cc(F)ccc1S(=O)(=O)NCC1CC2CCC1C2 (stereo not given) | inconclusive: 35.5 µM [inhibitor, single point] |  |
| COc1cc(C2C3C(=O)N(c4ccccc4)C(=O)C3ON2c2ccccc2)cc(OC)c1OC (stereo not given) |  | inactive: -7.61% |
| Cc1cc(C)nc(N2CCCC(C(=O)Nc3ccc4nc(C)c(C)nc4c3)C2)n1 (stereo not given) |  | inactive: 1.36% |
| Cc1ccccc1NC(=O)C(=O)NCC1CCCN1S(=O)(=O)c1cccs1 (stereo not given) |  | inactive: -2.26% |
| Cc1ccc(CNC(=O)C(Cc2ccccc2)NS(=O)(=O)c2ccc(Br)s2)cc1 (stereo not given) | inconclusive: 20 µM [inhibitor, single point] |  |
| CC(C)NC(=O)c1onc(CSc2ccc(Cl)cc2)c1C(=O)NC(C)C | inconclusive: 25.1 µM [inhibitor, single point] |  |
| C[C@@H]1CCC(=O)N(C[C@@H](C)CSc2ccccc2)CC1 | inconclusive: 14.1 µM [inhibitor, partial curve] and inconclusive: 31.6 µM [inhibitor, single point] |  |
| O=C(/C=C/c1ccccc1)c1cc(Br)ccc(=O)c1O | active: 15.8 µM |  |
| COc1ccc2sc(-c3ccccc3OC)c(-c3ccc(OCCN(C)C)cc3)c2c1 | active: 15.8 µM |  |
| COCCNc1nnc(SC(C)C(=O)Nc2ccc(-c3nc4ccc(C)cc4s3)cc2)s1 (stereo not given) | inconclusive: 25.1 µM [inhibitor, single point] |  |
| CC(OC(=O)C1CCN(S(=O)(=O)c2ccc(Cl)cc2)CC1)C(=O)NC1CCCCC1C (stereo not given) | inconclusive: 5.62 µM [inhibitor, single point] |  |
| CC(C)(C)OC(=O)N1CCC(c2c(C(=O)N3CCN(c4ccccn4)CC3)cnn2-c2ccc(F)cc2F)CC1 | inconclusive: 3.55 µM [inhibitor, partial curve, poor fit] |  |
| COc1ccc(NC(=O)CN2CC(c3ccccc3)CC2=O)cc1OC (stereo not given) | inconclusive: 35.5 µM [inhibitor, single point] |  |
| CCCCC(CC)C(=O)Oc1ccc(O)c(C(C)(C)C)c1 (stereo not given) | active: 14.1 µM |  |
| Cc1cccc(Cn2c(-c3ccccc3)nc3ccccc32)c1 | inconclusive: 22.4 µM [inhibitor, single point] |  |
| COc1ccc(CCNCc2csc3nc4ccccc4n23)cc1OC | inconclusive: 1.58 µM [inhibitor, full curve] |  |
| COCc1nc2ccccc2n1Cc1ccc(C(C)(C)C)cc1 | active: 10 µM |  |
| CC(=O)Nc1ccc(NC(=O)c2ccc3c(c2)N(Cc2cccc(Cl)c2)C(=O)c2ccccc2S3=O)cc1 (stereo not given) | inconclusive: 8.91 µM [inhibitor, partial curve] |  |
| O=C(C1=C[C@@H](c2coc3ccccc3c2=O)C[C@@H](OCc2ccc(CO)cc2)O1)N1CCCCCCC1 | inconclusive: 20 µM [inhibitor, partial curve, poor fit] |  |
| CC(C)(C)c1ccc(S(=O)(=O)/N=C2\C=C(NS(=O)(=O)c3ccccc3)C(=O)c3ccccc32)cc1 | inconclusive: 11.2 µM [inhibitor, partial curve, poor fit] |  |
| Cc1cc(C)n2nc(C(=O)OCCOc3ccc(Br)cc3)nc2n1 | inconclusive: 35.5 µM [inhibitor, single point] |  |
| O=c1cc(-c2ccccc2)[nH]c2cc(F)ccc12 | inconclusive: 6.31 µM [inhibitor, full curve, poor fit] |  |

From PubChem BioAssay AID588855 (National Center for Advancing Translational Sciences (NCATS), 2011)
